Hit rate of the full screen: of about 420,000 compounds, about 50,000 (12%) were called active. Inconclusive means that the source gave no clear call. Such entries were picked first, then a sample of the others. The call rests on the fitted dose curve; in most records, active means well fitted inhibition curve with a large enough effect; inconclusive means small, poorly fitted or top-dose-only effect; inactive means flat fitted curve, though single readings scatter. No potency is given beside an inconclusive call; the fits are too rough.
experiment: qHTS for Inhibitors of human tyrosyl-DNA phosphodiesterase 1 (TDP1): qHTS in cells in presence of CPT; conditions: chicken DT40 Tdp1-/-;hTDP1 cells + 20 nM CPT, ATP luminescence, 48 h; activity change, negative = growth inhibition: at 46.2 µM (top of the series) unless noted; further: nearly all actives have a fitted effect of over 55% in size
Outline: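 Cell growth measured by CellTiter-Glo luminescence after a minimum 48 h, 37 C compound exposure with 20 nM CPT in Tdp1-knockout DT40 cells stably expressing hTDP1, seeded 400/well; qHTS titration format.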
On the % scale 0 is the no-effect control and ±100 the full control effect; potency means the concentration at half of the fitted maximal effect; tags describe the fitted curve by direction and shape.

Structure (SMILES) | Potency | activity change, negative = growth inhibition
COc1ccc2[nH]c(=O)c(CN(Cc3cccnc3)S(=O)(=O)c3ccccc3F)cc2c1 | inconclusive [inhibitor, single point] | –
COc1ccc2c(CCNC(N)=S)c[nH]c2c1 | inconclusive [inhibitor, single point] | –
C[C@@]1(C(=O)O)NCCc2cc(O)c(O)cc21 | active: 10.6 µM | –
O=c1[nH]c(SCCOc2ccccc2)nc2ccccc12 | inconclusive [inhibitor, partial curve] | –
CN1CCN(C(CNC(=O)C(=O)Nc2ccccc2)c2ccc3c(c2)OCO3)CC1 (centres undefined) | – | inactive: 0.108%
CCOC(=O)c1ccc(Nc2cc(C)nc(C)c2C(=O)OCC)cc1 | inconclusive [inhibitor, partial curve] | –
CCCCNC(=O)N(C)c1nc2ccccc2s1 | inconclusive [inhibitor, partial curve, poor fit] | –
Cc1ccc(S(=O)(=O)N2CCN(c3ccnc(-c4cccs4)n3)CC2)cc1 | inconclusive [inhibitor, single point] | –
Cc1cc2c(cc1C)-n1nnnc1C(N1CCN(c3ccccn3)CC1)C(c1ccc3c(c1)OCO3)=N2 (centres undefined) | inconclusive [inhibitor, single point] | –
Cc1nc(C)c(-c2csc(Nc3ccc(F)cc3)n2)s1 | inconclusive [inhibitor, single point] | –
CCc1sc(-c2cc3cccc(OC)c3oc2=O)nc1-c1cc(C)ccc1C | inconclusive [inhibitor, single point] | –
COc1ccc(S(=O)(=O)N2CCC(Cc3ccccc3)CC2)cc1NC(C)=O | – | inactive: -7.52%
CCc1cc2cc3c(cc2nc1SCC(=O)Nc1nccs1)OCO3 | inconclusive [inhibitor, single point] | –
Cc1ccc(NC(=O)CC2C(=O)N(Cc3ccccc3)C(=S)N2NC(=O)c2ccccc2)c(C)c1 (centres undefined) | inconclusive [inhibitor, single point] | –
CNC(=S)N1CCc2cc(OC)c(OC)cc2C1COc1ccc(F)cc1 (centres undefined) | – | inactive: 1.34%
CCN(C[C@H]1N[C@@](Cc2ccccc2)(C(=O)OC)[C@H]2C(=O)N(C)C(=O)[C@@H]12)C(=O)Nc1ccc(C)cc1 | inconclusive [inhibitor, single point] | –
Cc1ccc(N2/C(=N/c3nc(C)cc(C)n3)NC(=O)CC2C(=O)O)cc1 (centres undefined) | – | inactive: -11.3%
CC1(C(=O)NCc2ccc3c(c2)OCO3)CCN1C(=O)CC1CCCC1 (centres undefined) | inconclusive [inhibitor, single point] | –
Cc1cccc(-c2noc(CN(C(=O)COc3ccc(C(C)C)cc3)C(C)C)n2)c1 | inconclusive [inhibitor, single point] | –
CCOC(=O)c1c(C)n(-c2ccccc2)c2ccc(OC(=O)c3ccccc3)cc12 | inconclusive [inhibitor, single point] | –
COc1ccccc1NS(=O)(=O)c1cccc(C(=O)NCC(c2ccc(F)cc2)N2CCOCC2)c1 (centres undefined) | inconclusive [inhibitor, partial curve, poor fit] | –
Cc1ccc(C(=O)Nc2ccc(Nc3ccccc3)cc2)cc1C | active: 20.6 µM | –

Structure (SMILES) | Potency | activity change, negative = growth inhibition
Cc1noc(C)c1C(=O)OCC(=O)c1c(N)n(CC(C)C)c(=O)n(C)c1=O | active: 18.4 µM | –
CCc1ccc(NC(=O)Cn2c(=O)c(-c3ccccc3NC(C)=O)nc3ccccc32)cc1 | – | inactive: -6.73%
OC[C@@H](O)[C@@H](O)[C@H](O)[C@H](O)CO | inactive | –
COc1ccc(/C=N/NC(=O)c2ccoc2C)cc1CN1CCN(c2ccc(F)cc2)CC1 | inconclusive [inhibitor, single point] | –
O=[N+]([O-])c1cccc(S(=O)(=O)Nc2cccc(-c3ccc(N4CCOCC4)nn3)c2)c1 | – | inactive: -12.7%
O=C(O)CSCCn1cccn1 | – | inactive: -12.6%
CN(C)CCC(C(=O)c1ccccc1)c1cccnc1 (centres undefined) | – | inactive: -16.1%
O=C(NCc1ccc(F)cc1)c1ccc(CS(=O)(=O)c2ccc(Cl)cc2)o1 | inconclusive [inhibitor, single point] | –
CC1=NN(S(=O)(=O)c2ccc(C)cc2)C(=O)c2ccccc2O1 | inconclusive [inhibitor, single point] | –
CCCCCC(=O)Nc1ccc(-c2cn3cccnc3n2)cc1 | – | inactive: -3.88%
COc1ccc(NC(=O)COC(=O)CCC(=O)c2cccs2)cc1OC | – | inactive: -8.42%
CCc1c(C(=O)Nc2ccc(OC)c(Cl)c2)[nH]c(C)c1C(C)=O | inconclusive [inhibitor, single point] | –
O=C(Nc1ccc(Cl)cn1)c1cc(S(=O)(=O)N2CCCCC2)ccc1Cl | inconclusive [inhibitor, single point] | –
C[C@H](O)[C@@H]1C(=O)N2CCc3c([nH]c4ccccc34)[C@@H]2C[C@@H]1N(C)C(=O)Nc1ccccc1 | – | inactive: -23.6%
NC(=O)c1ccsc1NC(=O)c1ccc(N2CCCC2=O)cc1 | inconclusive [inhibitor, partial curve, poor fit] | –
C#CCOCCOCCOCCNc1nc(N2CCN(C(=O)[C@H]([C@@H](C)CC)n3cc(CCCCN)nn3)CC2)nc(N2CCN(C(=O)[C@H]([C@@H](C)CC)n3cc(CCCN=C(N)N)nn3)CC2)n1 | – | inactive: 3.35%
COc1ccc(C2/C=C\CN(C(=O)c3ccccc3)CC(=O)N2Cc2ccc(F)cc2)cc1 (centres undefined) | – | inactive: -26.9%
Cc1cccnc1C1=NOC(Cc2ccccc2)C(=O)N1Cc1ccc2c(c1)OCO2 (centres undefined) | – | inactive: -2.04%
Cc1ccccc1-c1nc(CS(=O)(=O)CC(=O)N2CCOCC2)c(C)o1 | – | inactive: -0.693%
CCOc1ccc(S(=O)(=O)N(CC(=O)NCCSCc2ccc(C)cc2)c2ccccc2)cc1 | – | inactive: -7.56%
COc1ccc(C(=O)N[C@H](C(=O)Nc2nc3c(s2)CCCC3)C(C)C)cc1 | inconclusive [inhibitor, single point] | –
CC(C)CC(NC(=O)c1cccs1)c1nnc(SCc2ccc(Cl)c(Cl)c2)n1C (centres undefined) | inconclusive [inhibitor, single point] | –

— PubChem BioAssay AID686979 (National Center for Advancing Translational Sciences (NCATS), 2013)
